Literature values in publication PMC9501548, “Synthesis of Potential Antiviral Agents for SARS-CoV-2 Using Molecular Hybridization Approach” (Molecules, 2022).

Test system: RAW264.7 cells
Parameters: method as in PMID 34395311
Conditions: standard reference, against RAW264.7 cells; cited from earlier work

SMILES: CCC(CC)COC(=O)[C@H](C)N[P@](=O)(OC[C@H]1O[C@@](C#N)(c2ccc3c(N)ncnn23)[C@H](O)[C@@H]1O)Oc1ccccc1 [Remdesivir]
- CC50: 58.1 µM
